# Source: PubChem BioAssay AID485281 (National Center for Advancing Translational Sciences (NCATS), 2010)
# “And” between values parts separate entries of the source, which are not always exact repeats. Identical values can stand only once. Hit rate of the full screen: of about 350,000 compounds, about 260 (0.074%) were called active. Inconclusive results, whose numbers are uncertain, are shown with a selection of clear calls. Calls come from the whole dose curve; as a rule, active = well fitted inhibition curve with a large enough effect; inconclusive = small, poorly fitted or top-dose-only effect; inactive = no such curve, though single readings can be large or run the other way. Potencies beside an inconclusive call are fits to weak or partial responses and may not hold up.
# Molecular target: Ferritin light chain (Equus caballus) (UniProt P02791)
# UniProt P02791, sequence (P02791 whole entry, looked up): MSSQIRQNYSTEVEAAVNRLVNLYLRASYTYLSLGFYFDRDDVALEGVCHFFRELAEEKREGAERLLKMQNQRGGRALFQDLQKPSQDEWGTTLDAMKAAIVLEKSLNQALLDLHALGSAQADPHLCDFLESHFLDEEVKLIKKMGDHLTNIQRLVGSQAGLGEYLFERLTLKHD
# Assay: qHTS Assay for Identification of Novel General Anesthetics; note: nearly all actives have a fitted effect of over 20% in size
# Settings: apoferritin/1-aminoanthracene competitive binding, fluorescence; series mostly up to 77.5 µM
# How it was run: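 Steps: apoferritin (10 uM) was premixed with half-saturated 1-AMA in PBS, compounds were pin-transferred, plates stood 10 min at room temperature, fluorescence was read at 380/535 nm, and curves were fitted with a Hill equation.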
# Potency is the fitted concentration of half-maximal effect; tags give direction and shape of the fitted curve.
row,Compound,Potency
1,CC(C)(C)c1nc(SCC(=O)c2ccccc2)c2ccccc2n1,"inconclusive: 15.8 µM [inhibitor, partial curve]"
2,Cc1ccc(OC(=O)c2ccc(N3CCOCC3)c([N+](=O)[O-])c2)cc1,"inconclusive: 39.8 µM [inhibitor, partial curve]"
3,O=C1NC2(CCCCCC2)C(=O)N1Cc1cccc(Cl)c1,"inconclusive: 31.6 µM [inhibitor, partial curve]"
4,CCN(Cc1ccccc1)C(=O)CSc1nc(C)cc2c1C(=O)OC2,"inconclusive: 25.1 µM [inhibitor, partial curve]"
5,CCn1c(SCC(=O)Nc2nc3c(s2)CCCC3)nnc1-c1ccccc1,"inconclusive: 7.94 µM [inhibitor, partial curve]"
6,Cc1cccc(N2CCN(C(=O)c3cc4n(n3)C(C(F)(F)F)CC(c3ccco3)N4)CC2)c1C (centres undefined),"inconclusive: 4.47 µM [inhibitor, full curve]"
7,CCCN(CCC)CC(C)(C)NS(=O)(=O)c1ccc(Cl)cc1,inactive
8,CCOc1ccccc1-n1c(SCC(=O)Nc2ccc(CC)cc2)nc2n[nH]c(C)c2c1=N,inactive
9,Cc1nc(NC(=O)c2ccco2)sc1C(=O)Nc1ccc(Br)cc1,"inconclusive: 50.1 µM [inhibitor, single point]"
10,CC(=O)Nc1ccc(-c2csc(Nc3ccccn3)n2)cc1,inactive
11,Cc1ccccc1CN1C(=O)C(O)(CC(=O)c2ccccc2)c2cc(Cl)ccc21 (centres undefined),"inconclusive: 14.1 µM [inhibitor, partial curve]"
12,Cc1ccccc1OCc1n(CC(=O)OC2CC(C)CCC2C(C)C)c2ccccc2[n+]1C (centres undefined),"inconclusive: 7.08 µM [inhibitor, partial curve] and inconclusive: 28.2 µM [inhibitor, partial curve]"
13,Cc1nc2ccccc2cc1C(=O)O,inactive
14,Cc1oc(-c2ccc(F)cc2)cc1-c1nn2c(-c3ccoc3C)nnc2s1,"inconclusive: 31.6 µM [inhibitor, partial curve, poor fit]"
15,CCCCSc1nnc2c(n1)OC(C(=O)c1ccccc1)Nc1ccccc1-2 (centres undefined),"inconclusive: 35.5 µM [inhibitor, partial curve]"
16,O=C(CCCN1C(=O)/C(=C/c2ccccc2)SC1=S)Nc1ccc(C(=O)O)c(O)c1,"inconclusive: 31.6 µM [inhibitor, partial curve]"
17,CC1NC(C(=O)O)Cc2c1[nH]c1ccccc21 (centres undefined),inactive
18,C=CCn1c(COc2ccc(CC)cc2)nnc1SC/C(O)=C(\C#N)c1nc2ccccc2[nH]1,"inconclusive: 56.2 µM [inhibitor, single point]"
19,CCOC(=O)c1ccc(S(=O)(=O)N2CCN(CC(=O)NC(=O)NC3CCCCC3)CC2)cc1,"inconclusive: 39.8 µM [inhibitor, partial curve]"
20,O=C(Nc1cccc(-c2nc3ncccc3o2)c1)c1cc2ccccc2o1,"inconclusive: 20 µM [inhibitor, partial curve]"
21,CC(C)(C)NC(=O)C1CN(S(=O)(=O)c2ccccc2)CCN1S(=O)(=O)c1ccccc1 (centres undefined),"inconclusive: 35.5 µM [inhibitor, single point]"
22,Cc1cc(C)c(OCC(=O)Nc2nc(-c3ccccn3)cs2)c(C)c1,inactive
23,CSc1ccc(S(=O)(=O)NCc2ccccc2C)cc1,"inconclusive: 44.7 µM [inhibitor, single point]"

row,Compound,Potency
1,CCn1c(CSc2nnc3ccccn23)nc2cc(C(=O)O)ccc21,inactive
2,CCCCCCCC(=O)N/N=C/c1cccnc1,"inconclusive: 17.8 µM [inhibitor, partial curve]"
3,COc1ccc(CN2CCCC(C(=O)c3ccc(SC)cc3)C2)cc1Cn1cccn1 (centres undefined),"inconclusive: 14.1 µM [inhibitor, partial curve]"
4,CCOc1ccc(NC(=O)CC2C(=O)N(c3ccccc3)C(=O)N2Cc2ccco2)cc1 (centres undefined),inactive
5,CC(=O)c1cc(-c2ccccc2)n(CCC(=O)Nc2ccc(C(C)C)cc2)c1C,inactive
6,Cc1ccc(-n2ncc(C(=O)N3CCN(Cc4ccccc4)CC3)c2C2CCN(C(=O)OC(C)(C)C)CC2)cc1,"inconclusive: 3.16 µM [inhibitor, full curve]"
7,CCOc1ccc2nc(NC(=O)C3=NN(c4ccccc4)C(=O)CC3)sc2c1,"inconclusive: 17.8 µM [inhibitor, partial curve]"
8,O=C(NCc1ccco1)c1csc2c1CCCCC2,"inconclusive: 11.2 µM [inhibitor, partial curve]"
9,CC(C)(C)OC(=O)N1CCC(c2c(C(=O)NCCN3CCCC3)cnn2-c2ccc(Cl)cc2)CC1,"inconclusive: 17.8 µM [inhibitor, partial curve]"
10,CCOC(=O)c1ccc(N/C(=N\S(=O)(=O)c2ccccc2C)c2ccccc2)cc1,"inconclusive: 11.2 µM [inhibitor, partial curve]"
11,COc1ccc(-c2noc(CN(C(=O)c3cccs3)C(C)C)n2)cc1,"inconclusive: 39.8 µM [inhibitor, single point]"
12,CC(=O)N1c2ccc(S(=O)(=O)N3CCCCC3)cc2CC1C(=O)Nc1cccc(C)c1 (centres undefined),"inconclusive: 10 µM [inhibitor, partial curve]"
13,Cc1ccc(CNn2cnnc2SCc2ccc(F)cc2)cc1,"inconclusive: 28.2 µM [inhibitor, partial curve]"
14,CCOc1ccc(N2C(=O)C3C(c4ccccc4)=NN(c4ccccc4)C3C2=O)cc1 (centres undefined),inactive
15,Cc1nc2ncnn2c(N2CCCC(C(=O)Nc3ccc4c(c3)CCC4)C2)c1C (centres undefined),"inconclusive: 39.8 µM [inhibitor, partial curve]"
16,CCCCC(CC)C(=O)Nc1cccc(SC)c1 (centres undefined),"inconclusive: 22.4 µM [inhibitor, partial curve]"
17,O=C(Oc1cc(Cl)ccc1Cl)c1ccc(N2CCOCC2)c([N+](=O)[O-])c1,"inconclusive: 31.6 µM [inhibitor, single point]"
18,CCn1c(SCC(=O)c2ccc3c(c2)Cc2ccccc2-3)nnc1-c1ccc(N)cc1,"inconclusive: 20 µM [inhibitor, partial curve]"
19,CCOc1ccccc1C(=O)Nc1cccc2ccc(C)nc12,inactive
20,c1ccc(C2=Nc3ccccc3NC(c3ccccc3)C2)cc1 (centres undefined),"inconclusive: 35.5 µM [inhibitor, partial curve]"
21,CCCN(C(=O)C(=O)Nc1ccc2nc3n(c(=O)c2c1)CCCCC3)c1ccc(OCC)cc1,"inconclusive: 56.2 µM [inhibitor, single point]"
22,O=C(CN1CCc2ccccc21)NC(=O)NC1CCCCC1,inactive
23,CCOC(=O)c1cnc2ccccc2c1Nc1cccc(C(=O)O)c1,inactive

row,Compound,Potency
1,N=c1sccn1CC(=O)Nc1cccc2ccccc12,inactive
2,COc1ccc(Cl)cc1NC(=O)C1CCN(S(C)(=O)=O)CC1,inactive
3,O=C(C1CC(c2ccc(F)cc2)=NO1)N1CCCc2ccccc21 (centres undefined),"inconclusive: 28.2 µM [inhibitor, partial curve]"
4,Cc1cc([N+](=O)[O-])nn1CC(=O)N1CCc2ccccc2C1,"inconclusive: 50.1 µM [inhibitor, single point]"
5,Nc1nc(SCC(=O)C23CC4CC(CC(C4)C2)C3)n[nH]1,"inconclusive: 7.94 µM [inhibitor, partial curve]"
6,C/C(=N\NC(=O)C(C)Nc1cccc(Cl)c1)c1ccc([N+](=O)[O-])cc1 (centres undefined),"inconclusive: 50.1 µM [inhibitor, partial curve]"
7,CC(C)(C)NC(=O)c1nc2nc(-c3ccccc3)cc(C(F)(F)F)n2n1,inactive
8,O=C(Nc1nc(-c2cccs2)c(-c2ccccc2)s1)c1ccco1,inactive
9,COc1ccc2c(c1)C(C)=CC(C)(C)N2S(=O)(=O)c1ccc(NC(C)=O)cc1,inactive
10,Nc1ccc(C2=Nc3cccc4cccc(c34)N2)cc1,"inconclusive: 39.8 µM [inhibitor, single point]"
11,CCn1c(COc2ccccc2C)nnc1SCC(=O)CC(=O)Nc1ccccc1,"inconclusive: 35.5 µM [inhibitor, partial curve]"
12,COc1cc(C(=S)N2CCCC2)ccc1OCc1ccc(C)cc1,"inconclusive: 28.2 µM [inhibitor, single point]"
13,CCOc1ccc(Nc2c(S(=O)(=O)c3ccc(Cl)cc3)cnc3ccc(OC)cc23)cc1,"inconclusive: 6.31 µM [inhibitor, partial curve]"
14,Cc1sc(N2C(=O)C3C(C2=O)[C@H]2C=C[C@@H]3C2)c(C#N)c1C (some centres undefined),"inconclusive: 44.7 µM [inhibitor, single point]"
15,Cc1ccc(-n2nnc(-c3nsc(NC(=O)c4ccccc4C)n3)c2C)cc1Cl,"inconclusive: 28.2 µM [inhibitor, single point]"
16,CCOc1ccc(C(=O)Nc2ccc(N3CCN(C)CC3)cc2)cc1Br,inactive
17,O=C(NCC12CC3CC(CC(C3)C1)C2)c1nn2c(c1Cl)NC(c1ccco1)CC2C(F)(F)F (centres undefined),"inconclusive: 20 µM [inhibitor, partial curve]"
18,COC(=O)c1sccc1NC(=S)N1CCCC(C)C1 (centres undefined),"inconclusive: 28.2 µM [inhibitor, partial curve]"
19,CC(=O)c1c(OC(=O)c2ccccc2)c2ccccc2n1C,"inconclusive: 12.6 µM [inhibitor, partial curve]"
20,Cc1cc(C)nc(SCC(=O)Nc2ccc3c(c2)OCO3)n1,inactive
21,O=C(Nc1ccc(Cl)cc1)OCc1cncs1,"inconclusive: 35.5 µM [inhibitor, partial curve]"
22,CN(C)/C=C1\NC(=S)N(c2ccccc2)C1=O,inactive
23,COc1cccc(/C=N/NC(=O)CC(=O)NCCc2ccccc2)c1OC,"inconclusive: 56.2 µM [inhibitor, single point]"
